In all, about 220,000 compounds went through this assay and about 5,700 (2.6%) were called active. The inconclusive results got no clear call from the source; some entries with a clear call stand among them for comparison. The call rests on the fitted dose curve; in most records, active means well fitted inhibition curve with a large enough effect; inconclusive means small, poorly fitted or top-dose-only effect; inactive means no such curve, though single readings can be large or run the other way. A potency beside an inconclusive call is a rough fit, not a confirmed value.
Each compound was assayed against Lysine-specific demethylase 5B (Homo sapiens) (UniProt Q9UGL1) (assay: Primary screen for KDM5B Histone Demethylases FDH-coupled qHTS). Conditions: FDH-coupled NADH fluorescence (FDH is formaldehyde dehydrogenase); series mostly up to 57.7 µM.
Sequence of UniProt Q9UGL1 (Q9UGL1 whole entry, looked up): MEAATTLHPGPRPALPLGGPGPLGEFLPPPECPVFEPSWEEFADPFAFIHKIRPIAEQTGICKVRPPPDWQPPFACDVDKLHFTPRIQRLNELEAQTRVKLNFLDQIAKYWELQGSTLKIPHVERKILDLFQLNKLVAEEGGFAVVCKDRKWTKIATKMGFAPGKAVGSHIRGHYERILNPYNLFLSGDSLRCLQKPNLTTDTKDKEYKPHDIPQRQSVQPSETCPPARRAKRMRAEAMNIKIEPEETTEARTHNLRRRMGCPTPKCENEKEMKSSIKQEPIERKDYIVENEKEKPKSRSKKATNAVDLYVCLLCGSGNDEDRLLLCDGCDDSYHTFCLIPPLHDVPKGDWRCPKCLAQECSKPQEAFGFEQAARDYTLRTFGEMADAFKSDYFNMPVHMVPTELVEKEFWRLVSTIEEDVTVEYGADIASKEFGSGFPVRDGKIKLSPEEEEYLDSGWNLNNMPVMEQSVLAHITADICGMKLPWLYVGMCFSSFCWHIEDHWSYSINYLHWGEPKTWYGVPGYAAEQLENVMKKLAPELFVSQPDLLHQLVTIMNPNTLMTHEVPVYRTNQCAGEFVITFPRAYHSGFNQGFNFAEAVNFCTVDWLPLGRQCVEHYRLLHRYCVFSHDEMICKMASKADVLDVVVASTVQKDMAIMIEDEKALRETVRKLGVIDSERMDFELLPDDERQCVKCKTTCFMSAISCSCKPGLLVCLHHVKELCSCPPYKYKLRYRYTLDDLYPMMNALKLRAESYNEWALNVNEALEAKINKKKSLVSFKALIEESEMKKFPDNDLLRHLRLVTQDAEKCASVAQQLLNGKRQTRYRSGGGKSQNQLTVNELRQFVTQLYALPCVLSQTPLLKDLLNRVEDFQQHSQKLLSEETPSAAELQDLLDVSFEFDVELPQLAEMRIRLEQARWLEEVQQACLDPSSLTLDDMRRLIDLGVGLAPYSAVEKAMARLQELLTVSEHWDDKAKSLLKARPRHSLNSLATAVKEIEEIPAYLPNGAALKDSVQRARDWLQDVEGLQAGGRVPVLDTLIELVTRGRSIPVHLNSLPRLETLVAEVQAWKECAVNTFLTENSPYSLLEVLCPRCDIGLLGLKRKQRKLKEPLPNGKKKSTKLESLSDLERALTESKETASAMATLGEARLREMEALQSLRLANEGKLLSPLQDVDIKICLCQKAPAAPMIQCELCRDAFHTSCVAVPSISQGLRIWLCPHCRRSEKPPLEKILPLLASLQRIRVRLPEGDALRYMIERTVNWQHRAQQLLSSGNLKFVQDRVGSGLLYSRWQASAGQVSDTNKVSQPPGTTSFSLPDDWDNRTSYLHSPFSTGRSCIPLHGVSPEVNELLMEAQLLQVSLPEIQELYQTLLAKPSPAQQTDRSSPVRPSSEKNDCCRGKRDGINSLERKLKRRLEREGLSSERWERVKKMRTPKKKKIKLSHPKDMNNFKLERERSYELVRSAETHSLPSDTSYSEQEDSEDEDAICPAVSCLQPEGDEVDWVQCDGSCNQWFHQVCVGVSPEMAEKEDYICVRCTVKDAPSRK
Procedure, shortened: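 KDM5BΔAP (200 nM final) in 50 mM HEPES pH 7.5, 0.01% Tween-20 was preincubated 10 min at RT with compound over a concentration range. Substrate mix (H3K4me3 12.5 µM, α-KG 25 µM, Fe²⁺, ascorbate, NAD⁺, FDH) was added, and NADH fluorescence change over 30 min gave dose-response curves.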
With CCCCCCCCS(=O)CCCCCCCC the Potency was “inactive”. With c1cc2nncn2nc1NC1CCCC1 the Potency was “inactive”. In the case of O=C1COc2ccc(N3CCCC3)nc2CN1Cc1ccc(C(F)(F)F)cc1, the Potency is reported as inconclusive: 25.1 µM [inhibitor, partial curve, poor fit]. COc1ccc(N2C(=O)CC(Sc3nc(C)c4cc(OC)ccc4n3)C2=O)cc1 (stereo not drawn) was tested, and the Potency was inconclusive: 17.8 µM [inhibitor, partial curve, poor fit]. With Cc1noc(C)c1S(=O)(=O)N(C)CC(=O)Nc1ccccc1C(C)C the Potency was “inactive”. For COc1ccc2c(c1)c1c(c(=O)n(-c3ccc(F)c(Cl)c3)c(=O)n1CC(=O)N1CCCC1)n2C, the Potency was inconclusive: 1.41 µM [inhibitor, full curve, poor fit]. For CN1CC(=O)N(C2CCNCC2)Cc2c1ncnc2N1CCCC(O)C1 (stereo not drawn), the Potency was inconclusive: 44.7 µM [inhibitor, partial curve, poor fit]. With O=C(NC(c1ccccc1)c1ccccc1)c1cc2ccccc2[nH]1 the Potency was inconclusive: 22.4 µM [inhibitor, partial curve, poor fit]. For O=C(NCc1ccccn1)c1cc2c(ccc3ccccc32)oc1=O, the Potency was inconclusive: 20 µM [inhibitor, partial curve, poor fit]. For COc1ccccc1CC(=O)Nc1nc(C)c(C(C)=O)s1, the Potency was “inactive”. In the case of O=C(NC1CCCc2c1[nH]c1ccccc21)c1cccs1 (stereo not drawn), the Potency is reported as inconclusive: 14.1 µM [inhibitor, partial curve]. For CN(C)c1nc(N)nc(COc2ccc3ccccc3c2Br)n1, the Potency was “inactive”. In the case of CN(Cc1ccco1)C(=O)c1ccc2c(c1)N(Cc1ccccc1F)C(=O)c1ccccc1S2, the Potency is reported as inconclusive: 1.26 µM [inhibitor, partial curve, poor fit]. With C[C@@H](c1ccccc1)N(C)C(=O)c1cc(Cn2cnc3ccccc32)[nH]n1 the Potency was “inactive”. With Cc1nn(-c2ccc(C(C)C)cc2)c(C)c1[C@@H]1C=C[C@@H](NCc2cccc(C#N)c2)C1 the Potency was inconclusive: 22.4 µM [inhibitor, partial curve, poor fit]. COc1ccccc1-c1ncc2c(n1)OCCN(Cc1ccc(F)cc1F)C2=O was tested, and the Potency was active: 35.5 µM. In the case of CC(C)OCc1ccccc1CNS(=O)(=O)c1ccc(Cl)cc1C(F)(F)F, the Potency is reported as “inactive”. With CCn1ncc(N2CCCC(CC(=O)NCCN3CCCC3)C2)cc1=O (stereo not drawn) the Potency was inconclusive: 35.5 µM [inhibitor, single point]. With O=C(Cn1nc(-c2ccc(Cl)cc2)c2ccccc2c1=O)Nc1ccc2ccccc2c1 the Potency was “inactive”. For O=C(NCCCN1CCOCC1)c1cc(-c2ccco2)nc2ccccc12, the Potency was inconclusive: 14.1 µM [inhibitor, partial curve, poor fit]. In the case of O=C(Nc1ccc(I)cc1C(F)(F)F)c1ccc2ccccc2c1, the Potency is reported as “inactive”. In the case of CCn1c2c(c(=O)n3ncc(C(=O)Nc4cc(Cl)ccc4C)c13)CN(Cc1ccc(OC)cc1)CC2, the Potency is reported as inconclusive: 28.2 µM [inhibitor, partial curve, poor fit]. COc1ccc(C2C=C(c3cccc(OC)c3)Nc3c(C(=O)Nc4ccccc4)cnn32)cc1 (stereo not drawn) was tested, and the Potency was inconclusive: 17.8 µM [inhibitor, partial curve, poor fit]. With Cc1ccn2c(Nc3ccc(C(C)C)cc3)c(-c3cccs3)nc2c1 the Potency was inconclusive: 15.8 µM [inhibitor, partial curve, poor fit]. In the case of COc1cc(-c2ccnc3nc(-c4ccco4)nn23)cc(OC)c1OC, the Potency is reported as active: 25.1 µM. In the case of CSc1nc2c(c(=O)n(Cc3ccccc3)c(=O)n2C)n1Cc1ccccc1, the Potency is reported as “inactive”. CN1C(=O)c2cccn2CC1C(=O)NCc1ccco1 (stereo not drawn) was tested, and the Potency was “inactive”. In the case of CCCCN(Cc1cc2ccccc2[nH]c1=O)S(=O)(=O)c1ccc(Cl)cc1, the Potency is reported as inconclusive: 35.5 µM [inhibitor, single point]. For CCn1cc(-c2ccc(Cl)cc2)cc1C(=O)N1CCN(C(C)C)CC1, the Potency was “inactive”. With N#Cc1ccc(F)c(CSc2nnc(N)s2)c1 the Potency was “inactive”. In the case of Cc1cccc(N2CCN(C(=O)c3cccn4c(=O)c5cc(Cl)ccc5nc34)CC2C)c1 (stereo not drawn), the Potency is reported as inconclusive: 35.5 µM [inhibitor, partial curve, poor fit]. For COc1ccc(-c2ccc(=O)n(CC(=O)N3CCC(Cc4ccccc4)CC3)n2)c(F)c1, the Potency was “inactive”. With O=C(NCc1nnc2c(-c3nc(C4CC4)no3)cccn12)c1c(F)cccc1Cl the Potency was inconclusive: 14.1 µM [inhibitor, partial curve, poor fit]. For CCCc1cc(=O)oc2cc(OCC(=O)N(CC)CC)ccc12, the Potency was inconclusive: 35.5 µM [inhibitor, partial curve, poor fit]. In the case of O=C(N[C@@H]1CN(c2ncccn2)C[C@H]1CO)c1cc2ccccc2[nH]1, the Potency is reported as active: 14.1 µM. With COc1cccc(CNC2CCCCCC2)c1OC the Potency was inconclusive: 31.6 µM [inhibitor, partial curve, poor fit]. In the case of CC(C)(C)NC(=O)C1CCCN(C2CCN(C3Cc4ccccc4C3)CC2)C1 (stereo not drawn), the Potency is reported as inconclusive: 3.16 µM [inhibitor, full curve]. For CN1c2cc(C(=O)Nc3cccc(C(F)(F)F)c3)ccc2C(=O)N2CCCC21 (stereo not drawn), the Potency was inconclusive: 10 µM [inhibitor, partial curve, poor fit]. With CNc1c(NC(=O)NC(C)C)c(=O)oc2ccccc12 the Potency was “inactive”. CCN1C(=O)C(O)(CC(=O)c2ccc3c(c2)OCO3)c2ccccc21 (stereo not drawn) was tested, and the Potency was inconclusive: 39.8 µM [inhibitor, single point]. For CCn1cc(CN2CCCCCCNC(=O)[C@@H]3CCC[C@@H]32)c(C)n1, the Potency was inconclusive: 12.6 µM [inhibitor, partial curve]. For CCOC(=O)CCCNC(=O)c1cc(-c2ccncc2)nc2ccccc12, the Potency was “inactive”. With CCOc1cc(=O)n2c(c1C(=O)Nc1cccc(F)c1C)CCCC2 the Potency was “inactive”. For Cc1ccc(NC(=O)C2=C(c3ccccc3)NC(=S)NC2c2ccc(F)cc2)cc1 (stereo not drawn), the Potency was “inactive”. For COc1ccc(C(C)=O)cc1CN1CCCc2ccccc21, the Potency was inconclusive: 22.4 µM [inhibitor, partial curve, poor fit]. O=C(Oc1c(-c2ccccc2)c(=O)n2c3c(cccc13)CC2)c1ccc(Cl)cc1 was tested, and the Potency was inconclusive: 35.5 µM [inhibitor, partial curve, poor fit]. In the case of CCOc1ccc2oc(=O)cc(CN3CCN(c4cc(C)ccc4C)CC3)c2c1, the Potency is reported as inconclusive: 15.8 µM [inhibitor, single point]. In the case of CCc1noc(-c2cccn3c(CNC(=O)c4cccc(F)c4)nnc23)n1, the Potency is reported as active: 22.4 µM. With COCC1CN(C2CCC2)CC12CCN(C(=O)c1ccccc1C)CC2 (stereo not drawn) the Potency was inconclusive: 25.1 µM [inhibitor, single point]. For CNc1oc(-c2ccccc2F)nc1S(=O)(=O)c1ccc2c(c1)OCCO2, the Potency was inconclusive: 25.1 µM [inhibitor, single point]. In the case of Cc1ccc2c3cc(-c4ccccc4)cn3ccn12, the Potency is reported as inconclusive: 39.8 µM [inhibitor, single point]. In the case of CC1=C[C@@H](CNC(=O)C(=O)O)[C@H](C(C)C)C[C@H]1CC(=O)O, the Potency is reported as inconclusive: 35.5 µM [inhibitor, partial curve, poor fit]. In the case of CCOc1ccc2cc(/C(=N/O)C3CCCCC3)ccc2c1, the Potency is reported as “inactive”. Cc1nc2scc(CC(=O)N3CCCCC3)n2c(=O)c1-c1cc(C)n(-c2ccc(F)cc2)n1 was tested, and the Potency was inconclusive: 28.2 µM [inhibitor, partial curve, poor fit]. With Cc1ccc(-c2nnc3ccc(N4CCN(Cc5ccccc5)CC4)nn23)nc1 the Potency was active: 35.5 µM. For CC(=O)Nc1ccc(-c2c(-c3ccccc3)ncn2Cc2ccnc(C)c2)cc1, the Potency was inconclusive: 20 µM [inhibitor, single point]. COc1ccc(NC(=O)N(C)[C@H]2C[C@H]3c4[nH]c5c(-c6cccc(C)c6)cccc5c4CCN3C(=O)[C@H]2[C@H](C)O)cc1 was tested, and the Potency was inconclusive: 7.94 µM [inhibitor, full curve, poor fit]. CCc1nc(CN2CC[C@@H](c3ccc4c(c3)OCO4)[C@H](O)C2)c(C)[nH]1 was tested, and the Potency was active: 25.1 µM. With Cc1ccc(CNC(=O)Cn2c3ncccc3c(=O)n2-c2ccccc2)cc1 the Potency was inconclusive: 35.5 µM [inhibitor, partial curve, poor fit]. With CCCCOCCCNC(=O)c1c(C)noc1-c1cc(OC)cc(OC)c1 the Potency was inconclusive: 31.6 µM [inhibitor, single point]. Cc1nn2c(c1-c1ccccc1Oc1ccccc1)N(Cc1ccc(C(=O)O)s1)CCC2 was tested, and the Potency was inconclusive: 14.1 µM [inhibitor, partial curve]. In the case of CC(C)N1C[C@@H]2C[C@H]1C(=O)N(Cc1ccccc1)c1ccccc1O2, the Potency is reported as “inactive”. In the case of COc1ccc(NC(=O)c2nnn(Cc3ccccc3C)c2N)c(OC)c1, the Potency is reported as inconclusive: 31.6 µM [inhibitor, partial curve, poor fit]. For CC(=O)NC1(C)CCN(Cc2cccc(-c3cccc4ncccc34)c2)C1 (stereo not drawn), the Potency was active: 39.8 µM. In the case of Cc1ccc(C(=O)Nc2c(-c3ccccc3)nc3ccccn23)cc1C, the Potency is reported as inconclusive: 28.2 µM [inhibitor, single point]. For Cc1ccc(-c2cc(C(=O)NC3CC3)c3ccccc3n2)o1, the Potency was inconclusive: 22.4 µM [inhibitor, partial curve, poor fit]. With CCCCCNC(=O)COC(=O)c1cc2c(C)cc(C)cc2[nH]1 the Potency was “inactive”. O=C(COC(=O)c1ccccc1OCc1ccccc1)Nc1ccc(Cl)cc1 was tested, and the Potency was inconclusive: 28.2 µM [inhibitor, single point].

Source: PubChem BioAssay AID1347165 (National Center for Advancing Translational Sciences (NCATS), 2019)
Further: nearly all actives have a fitted effect of over 70% in size.
Potency means the concentration at half of the fitted maximal effect; tags describe the fitted curve by direction and shape.
